T1: BCMA expressed endogenously on U266 and H929 cells (UniProt Q02223 1-184, limits assumed)
T1 construct: whole, on cells; The cell line (U266 or H929) is named under assay in each row; also called B cell maturation antigen; CD269
T1 sequence (looked up): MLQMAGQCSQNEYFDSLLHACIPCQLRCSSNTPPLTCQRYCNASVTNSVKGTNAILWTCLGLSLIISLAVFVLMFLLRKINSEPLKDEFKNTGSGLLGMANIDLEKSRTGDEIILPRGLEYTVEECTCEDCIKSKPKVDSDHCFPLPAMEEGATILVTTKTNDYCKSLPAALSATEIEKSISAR

B1: BCMA-04 VL2VH1 (Fc fusion)
scFv: EVQLVQSGAEVKKPGSSVKVSCKASGYTFSSYGISWVRQAPGQGLEWMGEIYPRDDITYYNEKFKGRVTITADKSTSTAYMELSSLRSEDTAVYYCARHDYYYVNSVSAMDYWGQGTTVTVSSGGGGSGGGGSGGGGSDIQMTQSPSSLSASVGDRVTITCKSSQSLLYSSNQKNYLAWYQQKPGKSPKLLIYWASTRYSGVPSRFSGSGSGTDFTLTISSLQPEDFATYYCQQYYIYPWTFGGGTKVEIK[human IgG1 Fc with C220S (EU numbers) not spelt out]
B2: BCMA-04 VL2VH4 (Fc fusion)
scFv: EVQLQQSGAEVKKPGSSVKVSCKASGYSFTSYGISWVRQAPGQGLEWMGEIYPRDDITYYNEKFKGRVTITADKSTSTAYMELSSLRSEDTAVYYCARHDYYYVNSVSAMDYWGQGTTVTVSSGGGGSGGGGSGGGGSDIQMTQSPSSLSASVGDRVTITCKSSQSLLYSSNQKNYLAWYQQKPGKSPKLLIYWASTRYSGVPSRFSGSGSGTDFTLTISSLQPEDFATYYCQQYYIYPWTFGGGTKVEIK[human IgG1 Fc with C220S (EU numbers) not spelt out]
B3: BCMA-04 VL2VH5 (Fc fusion)
scFv: EVQLVQSGAEVKKPGSSVKVSCKASGYSFTSYGISWVRLAPGQGLEWMGEIYPRDDITYYNEKFKGRVTITADKSTSTAYMELSSLRSEDTAVYYCARHDYYYVNSVSAMDYWGQGTTVTVSSGGGGSGGGGSGGGGSDIQMTQSPSSLSASVGDRVTITCKSSQSLLYSSNQKNYLAWYQQKPGKSPKLLIYWASTRYSGVPSRFSGSGSGTDFTLTISSLQPEDFATYYCQQYYIYPWTFGGGTKVEIK[human IgG1 Fc with C220S (EU numbers) not spelt out]
notes: humanized scFv-Fc
B4: BCMA-01 VL1VH3 (Fc fusion)
scFv: EVKLVESGGGLVQPGGSLRLSCAASGFTFSDFYMYWVRQAPEKRLEWVAYITNGGENTYFPDTVKGRFTISRDNAKNSLYLQMNSLRAEDTAVYYCARQNPFYYYDSNYDYAMDFWGQGTTVTVSSGGGGSGGGGSGGGGSDVVMTQSPLSLPVTLGQPASISCKSSQSLLYSNGKTYLSWLFQRPGQSPRRLIYLVSELDSGVPDRFSGSGSGTDFTLKISRVEAEDVGVYYCVQGTHFPHTFGGGTKVEIK[human IgG1 Fc with C220S (EU numbers) not spelt out]
notes: humanized scFv-Fc
B5: BCMA-03 VL2VH2 (Fc fusion)
scFv: EVQLVQSGSELKKPGASVKVSCKASGYTFTNYAMTWVRQAPGQGLEWMGWIDTYSGVPTYADDFKGRFVFSLETSASTAYLQISSLKAEDTAVYYCARVGVYGGYDTLDSWGQGTTVTVSSGGGGSGGGGSGGGGSDIQMTQSPSSLSASVGDRVTITCSASQGISNHLNWYQQKPDKTVKLLIYYTSSLHSGVPSRFSGSGSGTDFTLTISSLQPEDFATYYCQQYNNLPWTFGGGTKVEIK[human IgG1 Fc with C220S (EU numbers) not spelt out]
notes: humanized scFv-Fc
B6: BCMA-03 VL1VH1 (Fc fusion)
scFv: EVQLVQSGSELKKPGASVKVSCKASGYTFTNYAMTWVRQAPGQGLEWMGWIDTYSGVPTYADDFKGRFVFSLDTSVSTAYLQISSLKAEDTAVYYCARVGVYGGYDTLDSWGQGTTVTVSSGGGGSGGGGSGGGGSDIQMTQSPSSLSASVGDRVTITCSASQGISNHLNWYQQKPGKAVKLLIYYTSSLHSGVPSRFSGSGSGTDFTLTISSLQPEDFATYYCQQYNNLPWTFGGGTKVEIK[human IgG1 Fc with C220S (EU numbers) not spelt out]
notes: humanized scFv-Fc
B7: BCMA-03 VL1VH2 (Fc fusion)
scFv: EVQLVQSGSELKKPGASVKVSCKASGYTFTNYAMTWVRQAPGQGLEWMGWIDTYSGVPTYADDFKGRFVFSLETSASTAYLQISSLKAEDTAVYYCARVGVYGGYDTLDSWGQGTTVTVSSGGGGSGGGGSGGGGSDIQMTQSPSSLSASVGDRVTITCSASQGISNHLNWYQQKPGKAVKLLIYYTSSLHSGVPSRFSGSGSGTDFTLTISSLQPEDFATYYCQQYNNLPWTFGGGTKVEIK[human IgG1 Fc with C220S (EU numbers) not spelt out]
notes: humanized scFv-Fc
B8: BCMA-03 VL1VH3 (Fc fusion)
scFv: EVPLVQSGSELKKPGASVKVSCKASGYTFTNYAMTWVRQAPGQGLEWMGWIDTYSGVPTYADDFKGRFVFSLETSASTAYLQISSLKAEDTAVYYCARVGVYGGYDTLDSWGQGTTVTVSSGGGGSGGGGSGGGGSDIQMTQSPSSLSASVGDRVTITCSASQGISNHLNWYQQKPGKAVKLLIYYTSSLHSGVPSRFSGSGSGTDFTLTISSLQPEDFATYYCQQYNNLPWTFGGGTKVEIK[human IgG1 Fc with C220S (EU numbers) not spelt out]
notes: humanized scFv-Fc
B9: BCMA-03 VL2VH1 (Fc fusion)
scFv: EVQLVQSGSELKKPGASVKVSCKASGYTFTNYAMTWVRQAPGQGLEWMGWIDTYSGVPTYADDFKGRFVFSLDTSVSTAYLQISSLKAEDTAVYYCARVGVYGGYDTLDSWGQGTTVTVSSGGGGSGGGGSGGGGSDIQMTQSPSSLSASVGDRVTITCSASQGISNHLNWYQQKPDKTVKLLIYYTSSLHSGVPSRFSGSGSGTDFTLTISSLQPEDFATYYCQQYNNLPWTFGGGTKVEIK[human IgG1 Fc with C220S (EU numbers) not spelt out]
notes: humanized scFv-Fc
B10: BCMA-03 VL2VH3 (Fc fusion)
scFv: EVPLVQSGSELKKPGASVKVSCKASGYTFTNYAMTWVRQAPGQGLEWMGWIDTYSGVPTYADDFKGRFVFSLETSASTAYLQISSLKAEDTAVYYCARVGVYGGYDTLDSWGQGTTVTVSSGGGGSGGGGSGGGGSDIQMTQSPSSLSASVGDRVTITCSASQGISNHLNWYQQKPDKTVKLLIYYTSSLHSGVPSRFSGSGSGTDFTLTISSLQPEDFATYYCQQYNNLPWTFGGGTKVEIK[human IgG1 Fc with C220S (EU numbers) not spelt out]
notes: humanized scFv-Fc
B11: BCMA-03 VL3VH1 (Fc fusion)
scFv: EVQLVQSGSELKKPGASVKVSCKASGYTFTNYAMTWVRQAPGQGLEWMGWIDTYSGVPTYADDFKGRFVFSLDTSVSTAYLQISSLKAEDTAVYYCARVGVYGGYDTLDSWGQGTTVTVSSGGGGSGGGGSGGGGSDIQMTQSPSSLSASVGDRVTITCSASQGISNHLNWYQQKPDGTVKLLIYYTSSLHSGVPSRFSGSGSGTDFTLTISSLQPEDFATYYCQQYNNLPWTFGGGTKVEIK[human IgG1 Fc with C220S (EU numbers) not spelt out]
notes: humanized scFv-Fc
B12: BCMA-03 VL3VH2 (Fc fusion)
scFv: EVQLVQSGSELKKPGASVKVSCKASGYTFTNYAMTWVRQAPGQGLEWMGWIDTYSGVPTYADDFKGRFVFSLETSASTAYLQISSLKAEDTAVYYCARVGVYGGYDTLDSWGQGTTVTVSSGGGGSGGGGSGGGGSDIQMTQSPSSLSASVGDRVTITCSASQGISNHLNWYQQKPDGTVKLLIYYTSSLHSGVPSRFSGSGSGTDFTLTISSLQPEDFATYYCQQYNNLPWTFGGGTKVEIK[human IgG1 Fc with C220S (EU numbers) not spelt out]
notes: humanized scFv-Fc
B13: BCMA-03 VL3VH3 (Fc fusion)
scFv: EVPLVQSGSELKKPGASVKVSCKASGYTFTNYAMTWVRQAPGQGLEWMGWIDTYSGVPTYADDFKGRFVFSLETSASTAYLQISSLKAEDTAVYYCARVGVYGGYDTLDSWGQGTTVTVSSGGGGSGGGGSGGGGSDIQMTQSPSSLSASVGDRVTITCSASQGISNHLNWYQQKPDGTVKLLIYYTSSLHSGVPSRFSGSGSGTDFTLTISSLQPEDFATYYCQQYNNLPWTFGGGTKVEIK[human IgG1 Fc with C220S (EU numbers) not spelt out]
notes: humanized scFv-Fc
B14: BCMA-04 VL1VH2 (Fc fusion)
scFv: EVQLVQSGAEVKKPGSSVKVSCKASGYSFTSYGISWVRQAPGQGLEWMGEIYPRDDITYYNEKFKGRVTITADKSTSTAYMELSSLRSEDTAVYYCARHDYYYVNSVSAMDYWGQGTTVTVSSGGGGSGGGGSGGGGSDIVMTQSPDSLAVSLGERATINCKSSQSLLYSSNQKNYLAWYQQKPGQSPKLLIYWASTRYSGVPDRFSGSGSGTDFTLTISSLQAEDVAVYYCQQYYIYPWTFGGGTKVEIK[human IgG1 Fc with C220S (EU numbers) not spelt out]

What follows are binders tested against T1, BCMA expressed endogenously on U266 and … (assay: FACS on U266 cells).
Procedure: The desired cells were scale-up cultured in T-75 cell culture flasks to the logarithmic growth phase, and the cells were pipetted into a single cell suspension. After the cells were counted, the cells were centrifuged and the cell pellet was resuspended in FACS buffer (PBS+2% fetal calf serum) to 2×10⁶ cells per ml, and the suspension was added to the 96-well FACS reaction plate at 50 μl per well, then the sample to be tested of the chimeric antibody was added at 50 μl per well and the mixture was incubated at 4° C. for 1 h. The obtained mixture was centrifuged and washed 3 times with a PBS buffer. […] The obtained mixture was centrifuged and washed 3 times with a PBS buffer. 100 μl of the mixture was taken for detection and result analysis by FACS (FACS Canto™, purchased from BD Company). Data analysis was performed by software (FlowJo) to obtain the mean fluorescence intensity (MFI) of the cells. Then, a software (GraphPad Prism8) was used for analysis, data fitting and EC50 calculation. The results are shown in Table 10 and FIGS. 10A-10B, FIGS. 11A-11B, and FIGS. 12A-12B. All seven chimeric antibodies bind to three types of BCMA-expressing endogenous cells.
The specific method was the same as that in Example 5 (C). First, the binding of humanized antibodies to U266 cells was detected. Based on the results, some humanized antibodies were selected and tested for binding to H929 cells. The remaining humanized antibodies were not tested for binding to H929 cells by FACS (indicated by “/” in the table). All humanized antibodies bind to U266 cells, and all humanized antibodies that bind to the H929 cell in the test bind to H929 cells.

B1 was tested. Which EC50 did it give?
Its EC50 is 14.4 nM.

What about the “Maximum mean fluorescence intensity” value of the same binder?
Its value is 3600.

B2 was tested. Which EC50 did it give?
The EC50 was 23.2 nM.

And the “Maximum mean fluorescence intensity” value?
Its value is 3490.

What does the source list for B3?
EC50: 23.9 nM; Maximum mean fluorescence intensity: 3350

Which results are given for B4?
EC50: 13.8 nM; Maximum mean fluorescence intensity: 4000

What does the source list for B5?
EC50: 17.6 nM; Maximum mean fluorescence intensity: 3360

Which EC50 does the source give for B6 here?
Its EC50 is 46.5 nM.

What about the “Maximum mean fluorescence intensity” value of the same binder?
Its value is 3370.

What does the source list for B7?
EC50: 30.3 nM; Maximum mean fluorescence intensity: 3300

With B8 as the binder, how does the EC50 read?
Its EC50 is 20.7 nM.

And the “Maximum mean fluorescence intensity” value?
The value was 3500.

With B9 as the binder, how does the EC50 read?
The EC50 was 22.3 nM.

What about the “Maximum mean fluorescence intensity” value of the same binder?
Its value is 3320.

B10 was tested. Which EC50 did it give?
Its EC50 is 18.9 nM.

What about the “Maximum mean fluorescence intensity” value of the same binder?
Its value is 3390.

Which results are given for B11?
EC50: 19.7 nM; Maximum mean fluorescence intensity: 3350

What does the source list for B12?
EC50: 17.7 nM; Maximum mean fluorescence intensity: 3330

Which results are given for B13?
EC50: 20.8 nM; Maximum mean fluorescence intensity: 3390

With B14 as the binder, how does the EC50 read?
The EC50 was 43.7 nM.

What about the “Maximum mean fluorescence intensity” value of the same binder?
Its value is 3000.

Reference: patent US20250297021A1 (SHANDONG SIMCERE BIOPHARMACEUTICAL CO NO 1, published 2025)
